The other results are listed elsewhere or left out. Values were computed here from the reads of four pooled replicates and scatter widely.
biological target: T1, Pho4 (S. cerevisiae) (UniProt P07270); experiment: relative binding free energy (BET-seq); higher = weaker binding; conditions: reference: library average
T1 sequence: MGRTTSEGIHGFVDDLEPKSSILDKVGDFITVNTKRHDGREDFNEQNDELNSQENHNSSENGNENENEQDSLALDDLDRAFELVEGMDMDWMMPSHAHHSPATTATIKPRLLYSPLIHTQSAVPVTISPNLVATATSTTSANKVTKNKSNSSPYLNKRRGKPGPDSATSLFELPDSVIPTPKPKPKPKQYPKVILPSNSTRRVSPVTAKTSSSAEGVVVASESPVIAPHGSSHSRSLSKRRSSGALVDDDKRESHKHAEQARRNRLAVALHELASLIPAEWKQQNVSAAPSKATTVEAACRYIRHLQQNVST

Row | Sequence | relative binding free energy
1 | TTATACACGTGGGGGA | -0.17 kcal/mol
2 | TGCGGCACGTGGAGGC | -0.06 kcal/mol
3 | ACGCGCACGTGGTGTT | -0.2 kcal/mol
4 | TAGGTCACGTGAGGAG | 0.31 kcal/mol
5 | TGTTGCACGTGAAATT | 0.2 kcal/mol
6 | TCTTTCACGTGAAAGG | 0.42 kcal/mol
7 | TGTGCCACGTGCGTTA | -0.21 kcal/mol
8 | GAGGCCACGTGAGGTG | 0.18 kcal/mol
9 | TGGTGCACGTGCGGGG | -0.12 kcal/mol
10 | TGCGTCACGTGTTTTT | 0.14 kcal/mol
11 | CTTAACACGTGTGTAT | -0.06 kcal/mol
12 | TCTGTCACGTGTAGTC | 0.17 kcal/mol
13 | AACTTCACGTGTGTTT | 0.33 kcal/mol
14 | GTGTGCACGTGGCGAA | -0.11 kcal/mol
15 | GTTCTCACGTGGCTTT | 0.19 kcal/mol
16 | TGACGCACGTGGGTTT | -0.21 kcal/mol
17 | ATTGGCACGTGGTGTC | -0.15 kcal/mol
18 | GTGGTCACGTGATACG | 0.14 kcal/mol
19 | AATTGCACGTGTATTG | -0.02 kcal/mol
20 | ACGTCCACGTGGGGGG | -0.12 kcal/mol
21 | TCGAGCACGTGGTTGA | -0.01 kcal/mol

Row | Sequence | relative binding free energy
22 | TGGGGCACGTGTACTA | -0.05 kcal/mol
23 | TTGGTCACGTGTGATT | 0.28 kcal/mol
24 | TTGGGCACGTGACAGC | 0.02 kcal/mol
25 | TTGAACACGTGGGAGC | 0.1 kcal/mol
26 | TGCATCACGTGATGTA | 0.38 kcal/mol
27 | CGAGACACGTGGGGGT | -0.23 kcal/mol
28 | TGGGACACGTGGGAAA | 0.04 kcal/mol
29 | TTGTGCACGTGGAAAT | 0.13 kcal/mol
30 | CTTTGCACGTGTGAGG | 0.13 kcal/mol
31 | AATGGCACGTGGTATC | -0.16 kcal/mol
32 | GCGGTCACGTGGTAGG | 0.15 kcal/mol
33 | GATGGCACGTGGTCGG | -0.16 kcal/mol
34 | CGGCGCACGTGTGGGC | -0.09 kcal/mol
35 | AGGTGCACGTGAGCGC | 0.11 kcal/mol
36 | TTTAGCACGTGTGTTA | -0.03 kcal/mol
37 | TGGAGCACGTGATGCG | -0.02 kcal/mol
38 | TGAGCCACGTGGGGAA | -0.12 kcal/mol
39 | AGTGACACGTGGTATA | -0.17 kcal/mol
40 | TTTATCACGTGATTCG | 0.12 kcal/mol
41 | GTTTGCACGTGCGCTT | -0.1 kcal/mol
42 | TCTAACACGTGTTGTT | -0.02 kcal/mol

Row | Sequence | relative binding free energy
43 | GATCGCACGTGGAAGT | 0.19 kcal/mol
44 | TAGTGCACGTGTCTGT | -0.12 kcal/mol
45 | GTTGACACGTGAGGTC | 0.21 kcal/mol
46 | CGGTGCACGTGGTGCA | -0.24 kcal/mol
47 | TGGTGCACGTGTCAAG | -0.07 kcal/mol
48 | TACTTCACGTGTAGGT | 0.17 kcal/mol
49 | AATAACACGTGGTATT | -0.09 kcal/mol
50 | TTCATCACGTGTAGGC | 0.24 kcal/mol
51 | GGTGTCACGTGTGTAC | 0.24 kcal/mol
52 | TAATTCACGTGAGTTA | 0.35 kcal/mol
53 | GATGTCACGTGATGAA | 0.44 kcal/mol
54 | TTGGTCACGTGGGACA | 0.02 kcal/mol
55 | ATTTACACGTGGTTAG | 0.15 kcal/mol
56 | TAGGGCACGTGGTGGA | -0.02 kcal/mol
57 | CGATTCACGTGGTAGT | 0.21 kcal/mol
58 | TCATTCACGTGGTGGG | 0.37 kcal/mol
59 | TATGACACGTGGTGAG | 0.14 kcal/mol
60 | GTTCCCACGTGGTTTG | 0.03 kcal/mol
61 | TGTATCACGTGTAACG | 0.19 kcal/mol
62 | TGAGTCACGTGTATTT | 0.29 kcal/mol
63 | TTTCTCACGTGGAAGG | 0.27 kcal/mol
